# Results published in the supplement of paper PMC7826260.
# The list shows a part of the results. One pool of 16,384 single-stranded DNAs met each Rep nickase domain in vitro for 1 h at 37 °C with 3 µM enzyme; only the middle of the 90-letter strands is printed. Uncut reads are compared with the no-enzyme pool on a log2 scale; uncut sequences lie near 0, cut ones below; no hit call is given. Counts are relative to all reads; where an enzyme cuts many sequences, the uncut ones exceed 0.
# Tested on: T1, Rep nickase domain of tomato golden mosaic virus
# T1 sequence (residues 1-124 of Rep, tag left off): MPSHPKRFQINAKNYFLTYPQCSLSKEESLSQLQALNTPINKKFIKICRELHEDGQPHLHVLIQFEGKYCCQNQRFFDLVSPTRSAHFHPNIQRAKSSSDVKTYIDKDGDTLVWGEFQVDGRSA
# Assay: uncleaved DNA left, log2 of reads against the no-enzyme library (log2 ratio); higher = less cleavage (more negative = more Rep cleavage of the k-mer); sequences stand for … in CTCGTCCG…ACCGGAGA
# Procedure: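 A pool of 90-nt single-stranded DNAs with seven random bases just before the constant AC of the nick site (name = the seven bases) was cut by 3 µM recombinant His6-SUMO-tagged Rep nickase domain (300 nM DNA, 50 mM HEPES pH 8.0, 50 mM NaCl, 1 mM MnCl2, 1 h, 37 °C, three replicates). Uncut DNA was amplified and sequenced.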
row,Sequence,uncleaved DNA left (log2)
1,ACGGATA,0.0465
2,CAAGTAG,-0.0141
3,CAGAGAT,0.0585
4,ACATCCC,-0.0322
5,ATCATTC,-0.25
6,CCGTAGA,0.0861
7,GTAACTG,0.0462
8,TGGCCGT,-0.12
9,CTCTCGG,0.249
10,ATTGGGA,0.0986
11,ACTTCGT,0.0812
12,CCCACGT,-0.106
13,GCCAAGC,-0.0472
14,TTAAATT,-0.0977
15,GCAACAG,0.0486
16,GCCTAAA,-0.0272
17,ATGTTAC,-0.542
18,ATTATAA,0.0454
19,ACCTAAT,0.287
20,TGCTGCG,-0.162

row,Sequence,uncleaved DNA left (log2)
1,AAAAACT,-0.309
2,ACTAATG,0.181
3,CTCGGAA,0.0364
4,TCCGAGT,-0.171
5,TGACGGG,-0.0754
6,ACCAGAT,0.0529
7,GATTTCC,0.0581
8,TTTAAAT,-0.0246
9,TTCCTTA,-0.143
10,TCCGTCC,-0.112
11,CAAGACC,-0.0884
12,GAAGCGT,-0.0299
13,CTAATCA,0.0663
14,AGTGCAG,0.0519
15,GATGAAA,-0.0462
16,GTCGCCC,-0.0402
17,ACAAGGT,0.0485
18,AACGCAT,-0.0898
19,TTAGATA,0.0589
20,ACGATCA,0.139
